# From PubChem BioAssay AID761 (NMMLSC, 2007)
# Hit rate of the full screen: of about 190,000 compounds, about 400 (0.21%) were called active. The inconclusive results got no clear call from the source; some entries with a clear call stand among them for comparison.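 How the source made its calls: active means percent activity GTP binding at least 20 points away from the 100% baseline, either down as inhibitor or up as activator; inconclusive means compound flagged as likely green fluorescent from well-wide comparison; inactive means the rest.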
# Molecular target: Cell division control protein 42 homolog (Homo sapiens) (UniProt P60953)
# Assay: wildtype Cdc42 fluorescent GTP binding changes, either direction – biochemical, multiplex bead flow cytometry, Bodipy-GTP, primary screen (AID 761);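 further: median bead fluorescence of bound Bodipy-FL-GTP at 100 nM; 0% = excess unlabeled GTP control and 100% = no compound control; below 100% means less GTP binding so inhibitor and above means activator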
# Conditions: GST-Cdc42 beads, at 10 µM, actives lie on both sides
# UniProt P60953, sequence (P60953 whole entry, looked up): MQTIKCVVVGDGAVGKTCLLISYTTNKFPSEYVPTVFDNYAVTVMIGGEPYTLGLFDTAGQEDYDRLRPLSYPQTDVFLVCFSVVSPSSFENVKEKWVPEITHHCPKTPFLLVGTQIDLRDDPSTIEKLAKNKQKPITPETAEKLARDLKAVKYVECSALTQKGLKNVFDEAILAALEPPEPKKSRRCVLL
row,Compound,percent activity (GTP binding)
1,COc1cc(NS(=O)(=O)c2ccc(N)cc2)nc(OC)n1,inactive: 106%
2,Cc1ccc(NC(=O)c2ccco2)c(NC(=O)c2cccs2)c1,inconclusive: 107%
3,O=P(O)(O)C(O)C(F)(F)C(F)(F)C(F)(F)C(F)F (centres undefined),inconclusive: 108%
4,COc1ccc(C(=O)N2CCOC2CNC(=O)C(=O)NCc2ccc(Cl)cc2)cc1 (centres undefined),inconclusive: 94%
5,COc1cc2[nH]c(=O)n(CCC(=O)NCCCN3CCN(c4ccccc4F)CC3)c(=O)c2cc1OC,inconclusive: 97%
6,CCN(CC)S(=O)(=O)c1ccc2oc(C(=O)N3CCCCCC3)c(C)c2c1,inactive: 112%
7,COc1ccc(C(=O)CN2C(=O)c3ccccc3C2=O)c(OC)c1C,inconclusive: 94%
8,CS(=O)(=O)N(CC(=O)NCc1ccncc1)c1cc(Cl)ccc1Cl,inactive: 98%
9,COc1cccc2c(=O)n(CC(=O)Nc3ccccc3F)ccc12,inconclusive: 104%
10,O=C(CSc1nnc2ccccn12)Nc1ccccc1C(=O)O,inconclusive: 115%
11,O=C(Cn1cnc2cc([N+](=O)[O-])ccc2c1=O)NC1CCS(=O)(=O)C1 (centres undefined),inconclusive: 90%
12,Cc1cccc(C(C)C)c1NC(=O)CSc1nncn1C,inconclusive: 103%
13,O=C(C1CCCN(Cc2nc(-c3cccs3)no2)C1)N1CCOCC1 (centres undefined),inactive: 95%
14,COc1cc(/C=N/Nc2nn3cnnc3c3ccccc23)ccc1O,active: 58%
15,CC(=O)NNC(=O)CCn1nnc(-c2ccc(Cl)cc2)n1,inactive: 98%
16,CSc1cccc(NC(=O)Cc2ccccc2[N+](=O)[O-])c1,inactive: 102%
17,COC(=O)c1ccc(C2/C(=C(/O)c3ccc(OC(C)C)cc3)C(=O)C(=O)N2c2cc(C)on2)cc1 (centres undefined),inconclusive: 94%
18,Brc1cc2c(cc1/C=N/Nc1nc(N3CCCC3)nc(N3CCOCC3)n1)OCO2,inconclusive: 96%
19,Cc1ccc(Sc2nnc(-c3ccccc3)cc2C#N)cc1,inconclusive: 264%
20,COCCCNS(=O)(=O)c1ccc(SC)cc1,inconclusive: 100%

row,Compound,percent activity (GTP binding)
1,CCOC(=O)c1cnc2c(-c3ccccc3)cnn2c1N,inconclusive: 106%
2,CCOC(=O)CSc1nc(C)c(C(C)=O)cc1C#N,inconclusive: 108%
3,COc1ccc(CC(=O)NNC(=O)Cc2ccc(OC)cc2)cc1,inconclusive: 93%
4,CCOc1nonc1C(=N)/C(C(C)=O)=C(\C)O,inconclusive: 109%
5,O=C(Oc1cccc(-n2cnnn2)c1)c1ccco1,inconclusive: 105%
6,CCn1c(SCC(=O)O)nnc1-c1cccnc1,inactive: 98%
7,NC(=O)[C@@H]1CCOc2c(I)cc([N+](=O)[O-])cc2C(=O)N[C@@H](CO)C(=O)NCC(=O)N1,inactive: 98%
8,CC(=O)NC1C(=O)N=C(SCC(=O)NC(C)c2ccccc2)NC1=O (centres undefined),inconclusive: 102%
9,CC(=O)CC(c1ccc([N+](=O)[O-])cc1)c1c(O)c2ccccc2oc1=O (centres undefined),inactive: 101%
10,O=C(NCc1ccccc1)c1ccc(S(=O)(=O)N2CCCc3ccccc32)cc1,inconclusive: 106%
11,Clc1cnc(N/N=C/c2ccco2)c(Cl)c1,inactive: 99%
12,O=c1c2ccccc2c(-c2n[nH]c(=S)o2)nn1Cc1ccccc1,inconclusive: 92%
13,CCOC(=O)c1sc2nc(C3CC3)cc(-c3ccc(F)cc3)c2c1N,inactive: 97%
14,Cc1ccc(S(=O)(=O)N2CCOCC2)cc1NC(=O)COC(=O)c1ccccc1OCc1c(C)noc1C,inactive: 102%
15,COc1ccc(O)c(-c2c(-c3ccc(Cl)cc3)n[nH]c2C)c1,inconclusive: 105%
16,CCCc1c(O)nc(SCCN(CC)CC)n(C(=O)c2ccccc2)c1=O,inactive: 97%
17,CCOC1=NC(C(=O)O)c2ccccc2/C(=C(/C)Cl)N1 (centres undefined),inconclusive: 106%
18,CCOC(=O)CCCCC(=O)c1[nH]c(=O)[nH]c1CN1CCOCC1,inconclusive: 103%
19,Cc1ccc(C(=O)NCC(=O)OCC(=O)Nc2ccccc2C#N)s1,inactive: 96%
20,O=C(NCc1ccccc1)c1cc(S(=O)(=O)N2CCOCC2)ccc1F,inconclusive: 114%

row,Compound,percent activity (GTP binding)
1,O=C(NC1CC1)C1=C[C@@H](c2ccccc2)C[C@@H](OCCCCO)O1,inconclusive: 97%
2,COc1ccc(-c2cc(C(F)(F)F)nc(-n3ccnc3C)n2)cc1,inconclusive: 96%
3,COc1ccc(C(=O)O/N=C2\CCCc3nonc32)cc1,inconclusive: 112%
4,CCc1cccc2c(/C=N/NC(=O)c3cccc(S(=O)(=O)Nc4ccccc4Cl)c3)c[nH]c12,inconclusive: 95%
5,CN(Cc1ccno1)C(=O)CC1C(=O)NCCN1CC(c1ccccc1)c1ccccc1 (centres undefined),inactive: 96%
6,COc1ccc(CN2CCNC(=O)C2CC(=O)NCCCn2cccn2)c(OC)c1 (centres undefined),inactive: 98%
7,COc1ccc(C(CC(=O)NCC(OC)OC)NS(=O)(=O)c2ccc(Cl)cc2)cc1 (centres undefined),inconclusive: 92%
8,CC(C(=O)NCCN1CCOCC1)c1ccc([N+](=O)[O-])cc1 (centres undefined),inconclusive: 105%
9,C/C(=N/OC(=O)c1ccc(C)cc1)c1ccc(N2C(=O)C3CCCCC3C2=O)cc1 (centres undefined),inconclusive: 98%
10,O=C(Nc1ccc2c(c1)OCO2)C1CCCCN1S(=O)(=O)c1ccc(F)cc1 (centres undefined),inconclusive: 104%
11,Cc1[nH]c2ccccc2c1CN1CCC(Cc2ccccc2)CC1,inactive: 98%
12,CC(C)N1CCC(N2CCN(C3CCCCCC3)CC2CCO)CC1 (centres undefined),inactive: 98%
13,CCOC(=O)Cc1csc(NC(=O)c2ccc(S(=O)(=O)N3CCCC3)cc2)n1,inactive: 104%
14,COCCn1c(N)c(N(Cc2ccccc2)C(=O)C2CCCC2)c(=O)[nH]c1=O,inactive: 100%
15,COc1ccc(NC(=O)C(c2ccccc2)c2ccccc2)cn1,inactive: 99%
16,O=C(NCc1cccs1)c1cccnc1C(=O)O,inconclusive: 119%
17,Cn1c(N)c(C(=O)COC(=O)c2cc(-c3ccco3)nc3ccccc23)c(=O)n(C)c1=O,inconclusive: 88%
18,Cc1ccc(OCC(=O)N/N=C/C=C/c2ccco2)cc1C,inconclusive: 99%
19,CSc1ccccc1C(=O)C1CCCN(Cc2cnn(-c3ccccc3)c2)C1 (centres undefined),inactive: 96%
